# Source: the supplement of paper PMC4604168 (melanoma cell lines)
# This is one part of the list. Single values are uncertain, as repeats are few or missing.
# Test system: 501Mel
# Assay: cell count relative to DMSO control; melanoma cells; higher = more viable cells
# Settings: library dose: standard library concentration; 72 h
# 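Also: cells treated in 1,536-well plates, then fixed and DAPI-stained, with nuclei counted from automated high-throughput microscope images.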
row,SMILES,cell count
1,"Nc1cccc2c1CN(C1CCC(=O)NC1=O)C2=O (stereo unspecified) [lenalidomide] + COc1ccc(-c2ccc3c(N4CCOCC4)nc(N4C[C@@H](C)O[C@@H](C)C4)nc3n2)cc1CO [KU0063794] (first compound 5 µM, partner dose 0.1 µM)",90.7%
2,"O=C(CCCCCCC(=O)Nc1ccccc1)NO [vorinostat] + COc1ccc2c(c1)CCC1C2CCC2(C)C(NCCCCCCN3C(=O)C=CC3=O)CCC12 [U73122] (first compound 0.4 µM, partner dose 2 µM)",76.6%
3,"Cn1c(Nc2ccc(C(F)(F)F)cc2)nc2cc(Oc3ccnc(-c4ncc(C(F)(F)F)[nH]4)c3)ccc21 + CCCCCCCCCCCC1=C(O)C(=O)C=C(O)C1=O [Embelin] (first compound 0.4 µM, partner dose 6 µM)",44%

# Test system: A101D
# Assay: as above
# Settings: library dose: standard library concentration; 72 h
row,SMILES,cell count
1,"Cn1c(Nc2ccc(C(F)(F)F)cc2)nc2cc(Oc3ccnc(-c4ncc(C(F)(F)F)[nH]4)c3)ccc21 + N#Cc1c(O)c2c(-c3ccc(-c4ccccc4O)cc3)csc2[nH]c1=O [A769662] (first compound 0.4 µM, partner dose 10 µM)",61.2%
2,"COCC[n+]1c2c(n(Cc3cnccn3)c1C)C(=O)c1ccccc1C2=O + N#Cc1c(O)c2c(-c3ccc(-c4ccccc4O)cc3)csc2[nH]c1=O [A769662] (first compound 0.002 µM, partner dose 10 µM)",78.8%
3,"Nc1cccc2c1CN(C1CCC(=O)NC1=O)C2=O (stereo unspecified) [lenalidomide] + O=c1cc(-c2cccc3c2Sc2ccccc2S3)oc(N2CCOCC2)c1 [KU55933] (first compound 5 µM, partner dose 5 µM)",91.2%
4,"O=C(CCCCCCC(=O)Nc1ccccc1)NO [vorinostat] + CCCCCCCCCCCC1=C(O)C(=O)C=C(O)C1=O [Embelin] (first compound 0.4 µM, partner dose 6 µM)",91.8%
5,"Clc1ccc(Nc2nnc(Cc3ccncc3)c3ccccc23)cc1 [vatalanib] + CCN(CC)CCCCNc1ncc2cc(-c3cc(OC)cc(OC)c3)c(NC(=O)NC(C)(C)C)nc2n1 [PD173074] (first compound 10 µM, partner dose 0.5 µM)",75.5%
6,"Clc1ccc(Nc2nnc(Cc3ccncc3)c3ccccc23)cc1 [vatalanib] + O=C(Nc1ccccc1)c1cc([N+](=O)[O-])ccc1Cl [GW9662] (first compound 10 µM, partner dose 10 µM)",46.4%
7,"COCC[n+]1c2c(n(Cc3cnccn3)c1C)C(=O)c1ccccc1C2=O + O=c1cc(-c2cccc3c2Sc2ccccc2S3)oc(N2CCOCC2)c1 [KU55933] (first compound 0.002 µM, partner dose 5 µM)",73.7%
8,"C#Cc1cccc(Nc2ncnc3cc(OCCOC)c(OCCOC)cc23)c1 [erlotinib] + c1cc(-c2cnn3cc(-c4ccc(OCCN5CCCCC5)cc4)cnc23)ccn1 [Dorsomorphin] (first compound 4 µM, partner dose 2 µM)",62.1%
9,"Nc1cccc2c1CN(C1CCC(=O)NC1=O)C2=O (stereo unspecified) [lenalidomide] + O=S(=O)(c1ccccc1)N(CC(F)(F)F)c1ccc(C(O)(C(F)(F)F)C(F)(F)F)cc1 [T0901317] (first compound 5 µM, partner dose 7 µM)",106%
10,"COCC[n+]1c2c(n(Cc3cnccn3)c1C)C(=O)c1ccccc1C2=O + CCCCCCCCCCCC1=C(O)C(=O)C=C(O)C1=O [Embelin] (first compound 0.002 µM, partner dose 6 µM)",65%
11,"OCc1c[nH]c2ccccc12 [Indole-3-carbinol] + COc1cc2ncnc(Nc3ccc(Oc4ccccc4)cc3)c2cc1OC [SrcI1] (first compound 4 µM, partner dose 10 µM)",67.6%
12,"C#Cc1cccc(Nc2ncnc3cc(OCCOC)c(OCCOC)cc23)c1 [erlotinib] + CCN(CC)CCCCNc1ncc2cc(-c3cc(OC)cc(OC)c3)c(NC(=O)NC(C)(C)C)nc2n1 [PD173074] (first compound 4 µM, partner dose 0.5 µM)",65.5%
13,"Cn1c(Nc2ccc(C(F)(F)F)cc2)nc2cc(Oc3ccnc(-c4ncc(C(F)(F)F)[nH]4)c3)ccc21 + Oc1nc(-c2ccc(C(F)(F)F)cc2)nc2c1CSCC2 [XAV939] (first compound 0.4 µM, partner dose 10 µM)",52.6%
